Among all 310,000 compounds or so, about 2,200 (0.71%) showed an effect of 50% or more. Effects have a minus sign here. Some of the results follow.

The target of the assay is human ether-à-go-go-related gene (hERG) potassium channel (human, UniProt Q12809). Kind of assay: primary screen, population patch clamp on CHO cells stably expressing hERG.
human ether-à-go-go-related gene (hERG) potassium channel, sequence (Q12809 whole entry, looked up): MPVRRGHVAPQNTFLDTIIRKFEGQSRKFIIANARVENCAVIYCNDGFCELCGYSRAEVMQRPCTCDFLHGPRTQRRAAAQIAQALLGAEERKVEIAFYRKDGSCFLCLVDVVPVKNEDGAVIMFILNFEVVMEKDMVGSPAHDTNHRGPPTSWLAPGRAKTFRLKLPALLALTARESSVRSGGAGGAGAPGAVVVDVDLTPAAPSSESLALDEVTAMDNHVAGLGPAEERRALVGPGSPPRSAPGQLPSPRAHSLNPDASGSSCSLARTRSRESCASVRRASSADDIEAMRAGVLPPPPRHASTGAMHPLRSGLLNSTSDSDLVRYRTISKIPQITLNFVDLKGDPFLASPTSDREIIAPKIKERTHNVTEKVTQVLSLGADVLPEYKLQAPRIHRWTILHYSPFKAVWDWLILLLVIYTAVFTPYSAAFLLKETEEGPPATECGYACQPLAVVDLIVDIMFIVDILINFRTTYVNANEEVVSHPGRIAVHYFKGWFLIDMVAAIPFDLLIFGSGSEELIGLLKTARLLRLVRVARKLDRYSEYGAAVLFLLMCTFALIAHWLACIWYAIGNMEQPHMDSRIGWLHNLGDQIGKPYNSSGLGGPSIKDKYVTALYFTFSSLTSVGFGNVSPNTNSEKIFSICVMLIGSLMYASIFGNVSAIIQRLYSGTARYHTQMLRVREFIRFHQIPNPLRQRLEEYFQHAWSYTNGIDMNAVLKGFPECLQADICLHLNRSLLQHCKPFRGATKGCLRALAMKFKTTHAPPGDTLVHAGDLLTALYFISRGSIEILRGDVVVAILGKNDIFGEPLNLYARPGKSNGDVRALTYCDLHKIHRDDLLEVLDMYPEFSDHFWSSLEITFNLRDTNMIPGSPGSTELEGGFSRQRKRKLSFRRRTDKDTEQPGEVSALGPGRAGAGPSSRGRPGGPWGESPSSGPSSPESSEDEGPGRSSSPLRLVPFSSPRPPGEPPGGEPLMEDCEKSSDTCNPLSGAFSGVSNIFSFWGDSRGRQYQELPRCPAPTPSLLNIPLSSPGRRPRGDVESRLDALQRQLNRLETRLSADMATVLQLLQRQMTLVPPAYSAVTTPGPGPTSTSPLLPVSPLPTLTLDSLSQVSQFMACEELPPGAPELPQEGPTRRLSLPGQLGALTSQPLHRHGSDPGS
`CCC(OC(=O)c1cccs1)C(=O)NCc1ccc(C)cc1` (stereo not shown): the “hERG current change (%, negative = inhibition) at 1uM” value came to 15.6%. The result for `Cc1ccc(CNC(=O)C2C3C=CC4(CN(Cc5cccnc5)C(=O)C24)O3)cc1` (stereo not shown) reads 8.86%; that for `Fc1ccccc1CSc1nncn1NCc1cccs1`, 13.3%; that for `Cc1ccc(C(=O)Nc2cc(Cl)ccc2-n2cncn2)s1`, 2.82%. The result for `O=C(OCc1c(F)cccc1Cl)c1cccnc1Cl` reads 9.98%.

Take `CCOCc1c(C(=O)NC2CCCCCC2)oc2ccccc12`: the “hERG current change (%, negative = inhibition) at 1uM” value is reported as -1.11%. The result for `Cc1cccc2c1NC(=O)C2=Nc1ccc(Cl)cc1` reads 18.7%. With `COc1ccc(NC(=S)N(CCc2nc3cc(C)c(C)cc3[nH]2)Cc2cccnc2)cc1` the figure was 9.27%; with `COc1ccccc1C(=O)N1CCCN(C(=O)c2ccccc2OC)CC1`, 16%; with `Cn1cccc1/C=C1/SC(=S)N(CC(=O)O)C1=O`, 9.11%. With `COc1ccc(C(=O)Nc2cccc(-c3ccc4nncn4n3)c2)cc1` the figure was 7.11%. For the compound `COc1cc(NC(=O)CCN2CCN(C/C=C/c3ccccc3)CC2)cc(OC)c1`, the “hERG current change (%, negative = inhibition) at 1uM” value was -36.8%. Consider `CCN(CC)C(=O)C1CCN(Cc2cn(C)nc2-c2ccc(Oc3ccccc3)cc2)CC1`, for which the “hERG current change (%, negative = inhibition) at 1uM” value came out at 3.2%. The result for `COc1ccc(-c2c[n+]3c(n2-c2ccccc2)CCCCC3)cc1.[Br-]` reads 2.74%; that for `COc1ccc(S(=O)(=O)Nc2c(C)n(C)n(-c3ccccc3)c2=O)c(Cl)c1Cl`, -4.03%. With `CC(=O)Nc1nc(C)nc(-c2ccccc2)c1C(C)=O` the figure was 3.7%; with `O=C(COC(=O)/C=C/c1ccc(Cl)cc1)NC(=O)NCc1ccccc1`, 5.01%. In the case of `N/C(=N\OC(=O)c1cccs1)c1cccnc1`, the “hERG current change (%, negative = inhibition) at 1uM” value amounted to 16.9%. With `COc1ccc(OC)c(N/C(C)=C/C(=O)c2ccccc2)c1` the figure was 5.49%. With `COc1ccccc1S(=O)Cc1ccc(C(=O)NC2CCCC2)o1` (stereo not shown) the figure was 5.17%; with `COc1ccc(OCc2cc(C(=O)NC3CCOCC3)no2)c2ccccc12`, 11.8%. With `O=C(CSc1nnc(SCc2cccc3ccccc23)s1)c1ccc2c(c1)OCO2` the figure was 17.7%; with `COc1ccc(NC(=O)C2CCN(S(=O)(=O)c3ccc(OC)c(OC)c3)CC2)c(OC)c1`, -7.41%; with `O=C(NC(=O)c1c(F)cccc1F)Nc1cc(Cl)c(F)c(Cl)c1F`, 14.8%. Turning to `C=CC(=C)CC(NC)c1ccccc1` (stereo not shown), the “hERG current change (%, negative = inhibition) at 1uM” value was 9.69%. With `CCC1(C)N(O)C(C)(C)C(c2ccc(F)cc2)=[N+]1[O-]` (stereo not shown), the “hERG current change (%, negative = inhibition) at 1uM” value was 6.41%. With `Cc1cc(C)n(NC(=S)NC2CCCC2)c(=O)c1C#N` the figure was -0.0307%; with `CC(C)(C)NC(=O)NC(=O)CSc1nncs1`, 8.5%.

Take `CCCN(CC1CC1)C(=O)CSc1ncnc2sccc12`: the “hERG current change (%, negative = inhibition) at 1uM” value is listed as -13.9%. With `CCc1cc(=O)oc2cc(C)cc(OC(C)C(=O)NCCCN3CCCC3=O)c12` (stereo not shown) the figure was 13.2%.

In the case of `Cc1cc(C)n(CC(=O)N2CCCC(N3CCN(c4ccccc4C)CC3)C2)n1` (stereo not shown), the “hERG current change (%, negative = inhibition) at 1uM” value worked out at 7.09%. The result for `CC(C)(C)c1ccc(S(=O)(=O)NCc2ccc(C(=O)N3CCCC3)cc2)cc1` reads 6.34%; that for `CCOC(=O)C(CCCCC(NC(C)=O)(C(=O)OCC)C(=O)OCC)(NC(C)=O)C(=O)OCC`, 10.8%; that for `Cc1sc(NC(=O)c2ccccc2)c(C(c2ccc(Cl)cc2)N2CCN(CCO)CC2)c1C` (stereo not shown), 4.95%.

Regarding `Cc1ccc(C)c(N2CCN(C(=O)CCC(=O)N3CCOc4ccc(Cl)cc43)CC2)c1`, the “hERG current change (%, negative = inhibition) at 1uM” value is reported as 0.277%.

As to `Cc1ccc(S(=O)(=O)N2CCOCC2)c(C)c1-n1cnnn1`, the “hERG current change (%, negative = inhibition) at 1uM” value was determined as 6.02%. With `CCOc1ccc(CCNC(=O)COC(=O)COc2ccccc2C)cc1OCC` the figure was 19.9%; with `COc1ccc(CCNCc2ccccc2)cc1.O=C(O)C(=O)O`, -3.3%; with `CCNC(=S)N1CCc2cc(OC)c(OC)cc2C1COc1ccccc1OC` (stereo not shown), 1.26%.

As to `COC(=O)c1c(NC(=O)CSc2nnnn2-c2ccc3c(c2)OCO3)sc(C)c1C`, the “hERG current change (%, negative = inhibition) at 1uM” value is on record as 15.9%.

As for `COc1ccc(Nc2nc3ccccc3nc2C)cc1`, the “hERG current change (%, negative = inhibition) at 1uM” value is given as -1.84%. With `Fc1ccc(NC(=S)N2CCCN(c3ccc(C(F)(F)F)cn3)CC2)c(F)c1` the figure was 14%; with `O=C(CC1C(=O)NCCN1CC1CCCCC1)NCc1cccc(F)c1F` (stereo not shown), 9.88%. The result for `CCOc1ccccc1NC(=O)CSc1nnc2ccc(-c3ccccn3)nn12` reads 11%; that for `O=C(NC1CCCc2c1cnn2-c1ccc(F)cc1F)c1cnccn1` (stereo not shown), -3.32%. With `CCc1c(C)sc(NC(=O)c2cccs2)c1C(N)=O` the figure was 11.1%; with `CC(C)(C)n1nnnc1CN1CCN2CCCC2C1` (stereo not shown), 2.6%. `COc1ccccc1C1(CC(=O)N2CCCCC2)CCOC(C(C)C)C1` (stereo not shown): the “hERG current change (%, negative = inhibition) at 1uM” value is listed as 6.44%.

Take `CCCCSc1nnc(C)c(=O)[nH]1`: the “hERG current change (%, negative = inhibition) at 1uM” value is 8.76%. With `CCN1C(=O)C(NC(C)=O)c2cc(Br)ccc21` (stereo not shown) the figure was -5.16%.

In the case of `COc1ccccc1C(=O)NCCC(=O)NC1=NCCS1`, the “hERG current change (%, negative = inhibition) at 1uM” value is recorded as 12%. With `CCc1ccc(-c2cc(C(F)(F)F)n3nc(C(=O)Nc4c(C)nn(Cc5ccc(F)cc5)c4C)cc3n2)s1` the figure was 5.94%; with `CN1CCN(Cc2cc(Cl)c3cccnc3c2OC(=O)c2cccs2)CC1`, -17.3%; with `COc1ccc(NC(=O)NNC(=O)c2ccc3ccccc3c2)cc1OC`, 10.5%. The result for `COc1ccc(NC(=O)c2ccc(NCCCN3CCOCC3)c([N+](=O)[O-])c2)cc1` reads 4.25%; that for `Cc1[nH]nc2c1C1(CCC(c3ccccc3)CC1)C(C#N)=C(N)O2` (stereo not shown), 13.7%.

For the compound `Cc1cc(Cl)c(S(=O)(=O)NCC2CCCO2)cc1OCC(=O)NC1CCCCC1` (stereo not shown), the “hERG current change (%, negative = inhibition) at 1uM” value is listed as -10.8%. The result for `CCN(CC)C(=O)CC(c1ccc(F)cc1)c1ccc(OC)cc1` (stereo not shown) reads 4.96%.

Source of the values: PMC4336329 (PLoS ONE, 2015).
